The target of experiment [1] is T1, myc-tagged full-length human PTK7 (PTK7-MT) (human) (UniProt Q13308).
T1 sequence: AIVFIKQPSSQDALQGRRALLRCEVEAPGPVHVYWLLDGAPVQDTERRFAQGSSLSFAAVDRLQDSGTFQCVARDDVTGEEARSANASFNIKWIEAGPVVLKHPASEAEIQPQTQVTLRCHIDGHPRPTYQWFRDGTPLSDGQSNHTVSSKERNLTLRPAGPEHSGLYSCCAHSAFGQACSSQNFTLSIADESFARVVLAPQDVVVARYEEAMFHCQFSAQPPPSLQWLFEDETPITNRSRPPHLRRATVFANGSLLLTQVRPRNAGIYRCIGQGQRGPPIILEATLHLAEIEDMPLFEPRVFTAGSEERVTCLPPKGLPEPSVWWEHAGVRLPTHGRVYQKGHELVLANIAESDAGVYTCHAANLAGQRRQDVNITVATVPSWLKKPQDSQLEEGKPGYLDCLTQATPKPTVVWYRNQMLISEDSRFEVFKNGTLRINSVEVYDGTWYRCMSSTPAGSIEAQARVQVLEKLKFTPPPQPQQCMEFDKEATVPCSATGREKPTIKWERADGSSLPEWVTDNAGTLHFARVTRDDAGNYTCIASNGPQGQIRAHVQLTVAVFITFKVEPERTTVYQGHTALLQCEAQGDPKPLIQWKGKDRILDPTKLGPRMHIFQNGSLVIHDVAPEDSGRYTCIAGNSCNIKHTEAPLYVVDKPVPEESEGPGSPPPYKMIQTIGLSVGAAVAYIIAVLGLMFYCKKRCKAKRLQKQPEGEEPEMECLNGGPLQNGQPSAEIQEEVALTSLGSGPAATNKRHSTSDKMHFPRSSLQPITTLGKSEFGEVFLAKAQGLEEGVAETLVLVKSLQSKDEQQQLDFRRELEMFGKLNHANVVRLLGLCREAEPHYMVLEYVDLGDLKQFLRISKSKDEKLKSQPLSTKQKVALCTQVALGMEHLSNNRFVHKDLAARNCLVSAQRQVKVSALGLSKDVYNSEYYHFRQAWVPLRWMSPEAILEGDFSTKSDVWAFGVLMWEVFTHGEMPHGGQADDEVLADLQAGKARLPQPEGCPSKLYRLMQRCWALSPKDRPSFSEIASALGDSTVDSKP
The experiment is described as follows: co-IP; MCF7 cells co-transfected, lysed 48 h later in TBS (50 mM Tris pH 7.5, 150 mM NaCl) with 0.5% NP-40; IP with anti-myc, anti-HA or anti-Flag M2 and Protein A Sepharose at 4°C; five washes with lysis buffer; Western blot. Background: Immunoblotting shows a protein as a band on a membrane.

Protein sequences, listed by entry. Tags and fused reporters are not part of them. Lines headed by an entry give the natural chain unless they say otherwise; changes in a name come on top.
UniProt Q9Z138: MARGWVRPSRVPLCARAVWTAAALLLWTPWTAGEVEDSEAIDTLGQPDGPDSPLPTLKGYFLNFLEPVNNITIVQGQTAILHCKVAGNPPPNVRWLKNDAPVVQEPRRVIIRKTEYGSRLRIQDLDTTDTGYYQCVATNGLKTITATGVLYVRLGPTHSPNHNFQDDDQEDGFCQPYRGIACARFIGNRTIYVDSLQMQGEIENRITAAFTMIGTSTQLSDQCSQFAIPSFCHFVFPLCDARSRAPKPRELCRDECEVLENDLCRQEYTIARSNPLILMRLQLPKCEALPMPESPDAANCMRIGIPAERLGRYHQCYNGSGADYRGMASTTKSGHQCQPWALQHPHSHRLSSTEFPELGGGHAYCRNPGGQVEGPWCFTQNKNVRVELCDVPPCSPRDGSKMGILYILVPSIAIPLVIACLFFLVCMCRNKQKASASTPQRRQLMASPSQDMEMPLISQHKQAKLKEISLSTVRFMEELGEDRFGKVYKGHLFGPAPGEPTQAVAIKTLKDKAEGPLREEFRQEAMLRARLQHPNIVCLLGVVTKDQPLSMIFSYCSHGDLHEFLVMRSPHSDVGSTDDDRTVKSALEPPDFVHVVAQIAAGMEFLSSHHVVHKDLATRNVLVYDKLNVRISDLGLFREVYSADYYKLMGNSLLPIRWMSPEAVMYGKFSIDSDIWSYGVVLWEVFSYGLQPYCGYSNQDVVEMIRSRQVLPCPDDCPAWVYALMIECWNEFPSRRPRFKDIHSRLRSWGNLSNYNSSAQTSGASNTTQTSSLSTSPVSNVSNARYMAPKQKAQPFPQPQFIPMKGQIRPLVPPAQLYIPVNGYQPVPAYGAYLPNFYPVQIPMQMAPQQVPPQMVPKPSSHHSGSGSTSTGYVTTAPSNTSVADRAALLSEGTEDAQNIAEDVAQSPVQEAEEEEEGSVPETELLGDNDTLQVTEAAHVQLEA

The target of experiment [2] is HA-tagged full-length mouse Ror2 (Ror2-HA) (mouse) (UniProt Q9Z138). The description is as above.
Experiment [3] has as its target secreted extracellular domain of mouse Ror2 (sRor2-HA) (mouse) (UniProt Q9Z138). Nature of the experiment: co-IP; data not shown: sRor2-HA as the precipitated protein, co-expressed with PTK7-MT in MCF7 cells.

No constants are given. Whether binding was seen depends on the method and setting. Binding seen in cells or lysates may run through a third protein. Some binding calls cover weakened binding; strength is not graded here. Sequences can lack the tags named with a protein.

Consider “secreted extracellular domain of mouse Ror2 (sRor2-HA) (from UniProt Q9Z138 34-403) (domain or fragment)”, for which the binding result in experiment [1] is listed as “binds”.
For the molecule “HA-tagged full-length mouse Ror2 (Ror2-HA) (from UniProt Q9Z138 34-944) (receptor)”, the binding result in experiment [1] is on record as “binds”.
In the case of “EGFR-EGFP (from UniProt P00533 25-1210) (receptor)”, the binding result in experiment [2] was “no binding”.

B1: TGFß1R-EGFP (receptor, UniProt P36897 34-503)
chain: LQCFCHLCTKDNFTCVTDGLCFVSVTETTDKVIHNSMCIAEIDLIPRDRPFVCAPSSKTGSVTTTYCCNQDHCNKIELPTTVKSSPGLGPVELAAVIAGPVCFVCISLMLMVYICHNRTVIHHRVPNEEDPSLDRPFISEGTTLKDLIYDMTTSGSGSGLPLLVQRTIARTIVLQESIGKGRFGEVWRGKWRGEEVAVKIFSSREERSWFREAEIYQTVMLRHENILGFIAADNKDNGTWTQLWLVSDYHEHGSLFDYLNRYTVTVEGMIKLALSTASGLAHLHMEIVGTQGKPAIAHRDLKSKNILVKKNGTCCIADLGLAVRHDSATDTIDIAPNHRVGTKRYMAPEVLDDSINMKHFESFKRADIYAMGLVFWEIARRCSIGGIHEDYQLPYYDLVPSDPSVEEMRKVVCEQKLRPNIPNRWQSCEALRVMAKIMRECWYANGAARLTALRIKKTLSQLSQQEGIKM
For the molecule B1, the binding result in experiment [2] and in experiment [1] was “no binding” each time.

B2: myc-tagged full-length human PTK7 (PTK7-MT) (receptor, UniProt Q13308 31-1070)
chain: AIVFIKQPSSQDALQGRRALLRCEVEAPGPVHVYWLLDGAPVQDTERRFAQGSSLSFAAVDRLQDSGTFQCVARDDVTGEEARSANASFNIKWIEAGPVVLKHPASEAEIQPQTQVTLRCHIDGHPRPTYQWFRDGTPLSDGQSNHTVSSKERNLTLRPAGPEHSGLYSCCAHSAFGQACSSQNFTLSIADESFARVVLAPQDVVVARYEEAMFHCQFSAQPPPSLQWLFEDETPITNRSRPPHLRRATVFANGSLLLTQVRPRNAGIYRCIGQGQRGPPIILEATLHLAEIEDMPLFEPRVFTAGSEERVTCLPPKGLPEPSVWWEHAGVRLPTHGRVYQKGHELVLANIAESDAGVYTCHAANLAGQRRQDVNITVATVPSWLKKPQDSQLEEGKPGYLDCLTQATPKPTVVWYRNQMLISEDSRFEVFKNGTLRINSVEVYDGTWYRCMSSTPAGSIEAQARVQVLEKLKFTPPPQPQQCMEFDKEATVPCSATGREKPTIKWERADGSSLPEWVTDNAGTLHFARVTRDDAGNYTCIASNGPQGQIRAHVQLTVAVFITFKVEPERTTVYQGHTALLQCEAQGDPKPLIQWKGKDRILDPTKLGPRMHIFQNGSLVIHDVAPEDSGRYTCIAGNSCNIKHTEAPLYVVDKPVPEESEGPGSPPPYKMIQTIGLSVGAAVAYIIAVLGLMFYCKKRCKAKRLQKQPEGEEPEMECLNGGPLQNGQPSAEIQEEVALTSLGSGPAATNKRHSTSDKMHFPRSSLQPITTLGKSEFGEVFLAKAQGLEEGVAETLVLVKSLQSKDEQQQLDFRRELEMFGKLNHANVVRLLGLCREAEPHYMVLEYVDLGDLKQFLRISKSKDEKLKSQPLSTKQKVALCTQVALGMEHLSNNRFVHKDLAARNCLVSAQRQVKVSALGLSKDVYNSEYYHFRQAWVPLRWMSPEAILEGDFSTKSDVWAFGVLMWEVFTHGEMPHGGQADDEVLADLQAGKARLPQPEGCPSKLYRLMQRCWALSPKDRPSFSEIASALGDSTVDSKP
Take B2: the binding entry in experiment [2] and in experiment [3] was “binds” in each case.

The values are drawn from publication PMC4683079.
